From paper PMC5700166 come the findings set out here.

Only a part is listed here, and it is no random draw. The list includes weakly bound sequences.

Assay in all cases: protein-binding microarray (PBM)
Common to all, as to settings: PBM: ~300 nM protein, 6 mM HEPES pH 7.8, 80 mM KCl, 0.5 mM EDTA, 0.5 mM EGTA, 6% glycerol, 35 ng/ul poly-dIdC, 1% milk, 1 h, room temperature; Ap Aiptasia and Nv Nematostella (sea anemones) / Co Capsaspora / Aq Amphimedon (sponge) / Dm Drosophila / Hu human; RHD is the Rel homology domain; high values mean tight binding; most listed sequences are background and not binding sites; double strand, one strand shown

Experiment [1] deals with T1, GST-Nv-NF-kB (Cys allele) (UniProt E5G601).
T1 sequence: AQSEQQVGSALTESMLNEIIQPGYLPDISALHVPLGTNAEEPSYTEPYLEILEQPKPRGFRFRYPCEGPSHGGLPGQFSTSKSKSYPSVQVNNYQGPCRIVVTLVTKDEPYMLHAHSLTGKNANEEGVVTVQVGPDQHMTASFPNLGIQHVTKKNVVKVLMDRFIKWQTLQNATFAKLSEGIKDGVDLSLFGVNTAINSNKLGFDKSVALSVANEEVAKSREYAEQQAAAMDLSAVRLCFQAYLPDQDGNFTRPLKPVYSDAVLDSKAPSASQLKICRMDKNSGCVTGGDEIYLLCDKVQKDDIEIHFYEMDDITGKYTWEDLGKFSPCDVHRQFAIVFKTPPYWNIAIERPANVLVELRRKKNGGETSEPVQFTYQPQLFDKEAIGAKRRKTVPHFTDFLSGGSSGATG

For experiment [2], the target named is T2, GST-Co-NF-kB (UniProt F1ARL5).
T2 sequence: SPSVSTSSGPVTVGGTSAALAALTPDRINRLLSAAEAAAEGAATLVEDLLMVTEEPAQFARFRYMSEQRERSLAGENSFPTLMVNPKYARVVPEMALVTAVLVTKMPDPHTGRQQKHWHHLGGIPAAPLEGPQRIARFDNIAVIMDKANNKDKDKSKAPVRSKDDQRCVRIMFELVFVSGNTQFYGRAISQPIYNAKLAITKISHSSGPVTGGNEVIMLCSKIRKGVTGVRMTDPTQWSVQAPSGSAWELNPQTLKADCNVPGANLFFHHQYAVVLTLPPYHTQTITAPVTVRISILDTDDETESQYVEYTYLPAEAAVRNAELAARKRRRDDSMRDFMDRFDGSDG

Experiment [3] addresses T3, GST-Dm-Relish (UniProt Q94527).
T3 sequence: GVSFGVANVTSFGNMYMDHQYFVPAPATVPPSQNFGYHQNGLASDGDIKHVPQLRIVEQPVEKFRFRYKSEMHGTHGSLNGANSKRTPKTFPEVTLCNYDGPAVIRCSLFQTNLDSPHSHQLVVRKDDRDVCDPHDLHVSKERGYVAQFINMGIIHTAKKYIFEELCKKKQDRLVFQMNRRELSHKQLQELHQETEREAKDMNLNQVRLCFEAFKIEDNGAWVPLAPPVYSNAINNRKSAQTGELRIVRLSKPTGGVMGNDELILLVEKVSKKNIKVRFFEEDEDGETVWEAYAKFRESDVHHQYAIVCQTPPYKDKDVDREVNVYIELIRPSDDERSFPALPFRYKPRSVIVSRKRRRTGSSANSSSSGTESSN

For the sequence “CCGATTAACATCACGGAGATCCCTGATGTTAATCGGGTCTTGATTCGCTTGACGCTGCTG”, the binding signal in experiment [1] came to 0.437 z-score; in experiment [2], 0.253 z-score.
As for “CCGATTAACATCAGGGAATATACTGATGTTAATCGGGTCTTGATTCGCTTGACGCTGCTG”, the binding signal is 3.81 z-score in experiment [1] and 3.18 z-score in experiment [2].
On to “CCGATTAACATCAAAGAATTCCCTGATGTTAATCGGGTCTTGATTCGCTTGACGCTGCTG”, for which the binding signal in experiment [1] worked out at 7.26 z-score; in experiment [2] it was 4.52 z-score.
For “CCGATTAACATCAAAATTACCCCTGATGTTAATCGGGTCTTGATTCGCTTGACGCTGCTG”, in that order: 6.27 z-score and 7.33 z-score.
Consider “CCGATTAACATCAAGGAAAACCCTGATGTTAATCGGGTCTTGATTCGCTTGACGCTGCTG”, for which the binding signal in experiment [1] is 2.33 z-score; in experiment [2], 0.769 z-score.
With “CCGATTAACATCACGGACACCCCTGATGTTAATCGGGTCTTGATTCGCTTGACGCTGCTG”, the figures for the binding signal in experiment [1] and in experiment [2] were 0.797 z-score and 1.34 z-score, respectively.
For “CCGATTAACATCAAAACAACCCCTGATGTTAATCGGGTCTTGATTCGCTTGACGCTGCTG”, the binding signal was 3.44 z-score in experiment [1] and 2.54 z-score in experiment [2].
For the sequence “CCGATTAACATCAAATTCCCCCATGATGTTAATCGGGTCTTGATTCGCTTGACGCTGCTG”, the binding signal in experiment [1] stood at 8.92 z-score; in experiment [2], 9.97 z-score.
For “CCGATTAACATCAGGAAACACCATGATGTTAATCGGGTCTTGATTCGCTTGACGCTGCTG”, in that order: 0.185 z-score and 0.0331 z-score.
Regarding “CCGATTAACATCAAGGGGGAGAATGATGTTAATCGGGTCTTGATTCGCTTGACGCTGCTG”, the binding signal in experiment [1] amounted to 6.63 z-score; in experiment [2] it was 7.92 z-score.
For “CCGATTAACATCAGGGGAATAAATGATGTTAATCGGGTCTTGATTCGCTTGACGCTGCTG”, the results for the binding signal in experiment [1] and in experiment [2] were 7.82 z-score and 8.22 z-score, respectively.
As to “CCGATTAACATCAAAATTACCCATGATGTTAATCGGGTCTTGATTCGCTTGACGCTGCTG”, the binding signal in experiment [1] came out at 4.69 z-score; in experiment [2], 2.84 z-score.
With “CCGATTAACATCAAAAATTCCCTTGATGTTAATCGGGTCTTGATTCGCTTGACGCTGCTG”, the binding signal came out at 9.28 z-score in experiment [1] and 4.19 z-score in experiment [2].
For “CCGATTAACATCAAATGGGAATTTGATGTTAATCGGGTCTTGATTCGCTTGACGCTGCTG”, in that order: 4.5 z-score and 1.12 z-score.
With “CCGATTAACATCAATATTCCCCATGATGTTAATCGGGTCTTGATTCGCTTGACGCTGCTG”, the binding signal in experiment [1] came out at 8.39 z-score; in experiment [2], 8.46 z-score.
For the sequence “CCGATTAACATCAGGGTTTTCCATGATGTTAATCGGGTCTTGATTCGCTTGACGCTGCTG”, the binding signal in experiment [1] was 2.18 z-score; in experiment [2], -0.185 z-score.
Regarding “CCGATTAACATCACGGGGGAATATGATGTTAATCGGGTCTTGATTCGCTTGACGCTGCTG”, the binding signal in experiment [1] was 7.14 z-score; in experiment [2], 10.6 z-score.
As to “CCGATTAACATCAAAATATTCCCTGATGTTAATCGGGTCTTGATTCGCTTGACGCTGCTG”, the binding signal in experiment [1] was found to be 7.36 z-score; in experiment [2], 4.81 z-score.
With “CCGATTAACATCAAATATTTCCCTGATGTTAATCGGGTCTTGATTCGCTTGACGCTGCTG”, the results for the binding signal in experiment [1] and in experiment [2] were 6.57 z-score and 5.89 z-score, respectively.
“CCGATTAACATCAAATTTCCCACTGATGTTAATCGGGTCTTGATTCGCTTGACGCTGCTG”: the binding signal in experiment [1] worked out at 4.26 z-score; in experiment [2], 4.39 z-score.
For “CCGATTAACATCAGGGGTTTTGATGATGTTAATCGGGTCTTGATTCGCTTGACGCTGCTG”, in that order: 3.46 z-score and 1.34 z-score.
For the sequence “CCGATTAACATCAGGGACACCCCTGATGTTAATCGGGTCTTGATTCGCTTGACGCTGCTG”, the binding signal in experiment [1] came out at 4.44 z-score; in experiment [2], 3.39 z-score.
For “CCGATTAACATCAGGAATAACCCTGATGTTAATCGGGTCTTGATTCGCTTGACGCTGCTG”, in that order: 2.62 z-score and 0.267 z-score.
Regarding “CCGATTAACATCACGGTAATTCCTGATGTTAATCGGGTCTTGATTCGCTTGACGCTGCTG”, the results for the binding signal in experiment [1] and in experiment [2] were 2.05 z-score and 0.274 z-score, respectively.
Turning to “CCGATTAACATCAGGGGAAGTCATGATGTTAATCGGGTCTTGATTCGCTTGACGCTGCTG”, the binding signal is 7.2 z-score in experiment [1] and 4.69 z-score in experiment [2].
For “CCGATTAACATCAAGTTTCCCCATGATGTTAATCGGGTCTTGATTCGCTTGACGCTGCTG”, in that order: 6.87 z-score and 9.1 z-score.
Regarding “CCGATTAACATCAAAAACTTCCCTGATGTTAATCGGGTCTTGATTCGCTTGACGCTGCTG”, the figures for the binding signal in experiment [1] and in experiment [2] were 5.84 z-score and 3.89 z-score, respectively.
As to “CCGATTAACATCAAGTATTCCCATGATGTTAATCGGGTCTTGATTCGCTTGACGCTGCTG”, the binding signal in experiment [1] was 2.26 z-score; in experiment [3], 2 z-score.
For “CCGATTAACATCAGGGAAAGGGATGATGTTAATCGGGTCTTGATTCGCTTGACGCTGCTG”, in that order: 3.29 z-score and 0.0156 z-score.
Consider “CCGATTAACATCAGGGTTTTTAGTGATGTTAATCGGGTCTTGATTCGCTTGACGCTGCTG”, for which the binding signal turned out to be 1.3 z-score in experiment [1], 0.428 z-score in experiment [2] and 2.9 z-score in experiment [3].
Turning to “CCGATTAACATCATCCGGGAAAATGATGTTAATCGGGTCTTGATTCGCTTGACGCTGCTG”, the binding signal in experiment [1] was 3.79 z-score; in experiment [3], 1.58 z-score.
Turning to “CCGATTAACATCAAGACTCCCCCTGATGTTAATCGGGTCTTGATTCGCTTGACGCTGCTG”, the binding signal in experiment [1] stood at 5.25 z-score; in experiment [2] it was 5.87 z-score; in experiment [3] it was 4.5 z-score.
As to “CCGATTAACATCAGGAGTTACCCTGATGTTAATCGGGTCTTGATTCGCTTGACGCTGCTG”, the binding signal in experiment [1] was determined as 3.81 z-score; in experiment [2] it was 2.23 z-score; in experiment [3], 5.11 z-score.
